{
  "source": "PubChem BioAssay AID2147",
  "about": "(National Center for Advancing Translational Sciences (NCATS), 2009)",
  "note": "Hit rate of the full screen: of about 230,000 compounds, about 3,600 (1.6%) were called active. The shares of active, inactive and inconclusive entries below differ from those in the screen. Calls follow the shape of the dose curve; as a rule, active = well fitted inhibition curve with a large enough effect (not every such curve was filed as active); inconclusive = small, poorly fitted or top-dose-only effect, or another doubt; inactive = no such curve, though single readings can be large or run the other way. Potencies of inconclusive entries are doubtful fits and often do not repeat. Also: nearly all actives have a fitted effect of over 50% in size.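 For activity change, negative = inhibition in this document: 0% = wells with enzyme and -100% = buffer wells without enzyme.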 Potency is read from the fitted curve at half-maximal effect; tags tell the direction and shape of the fitted curve.",
  "data": [
    {"target": "Lysine-specific demethylase 4E (Homo sapiens) (UniProt B2RXH2)", "sequence (B2RXH2 whole entry, looked up, the tested form may be a part)": "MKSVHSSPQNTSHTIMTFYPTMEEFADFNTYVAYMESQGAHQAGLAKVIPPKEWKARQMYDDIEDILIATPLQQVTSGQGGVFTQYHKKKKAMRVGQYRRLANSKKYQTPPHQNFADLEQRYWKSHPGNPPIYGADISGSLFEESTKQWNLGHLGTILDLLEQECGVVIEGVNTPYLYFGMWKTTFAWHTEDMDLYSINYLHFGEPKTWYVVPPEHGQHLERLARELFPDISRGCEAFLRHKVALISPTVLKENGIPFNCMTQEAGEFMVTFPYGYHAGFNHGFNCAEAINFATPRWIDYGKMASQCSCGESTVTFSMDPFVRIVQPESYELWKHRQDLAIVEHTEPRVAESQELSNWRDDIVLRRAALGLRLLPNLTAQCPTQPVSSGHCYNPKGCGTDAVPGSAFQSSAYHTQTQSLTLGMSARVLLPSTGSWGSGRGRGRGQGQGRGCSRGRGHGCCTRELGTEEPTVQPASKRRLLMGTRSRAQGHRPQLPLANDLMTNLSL", "assay": "qHTS Assay for Inhibitors of Human Jumonji Domain Containing 2E (JMJD2E)", "settings": "JMJD2E catalytic domain, FDH-coupled NADH fluorescence (FDH is formaldehyde dehydrogenase); series mostly up to 57.1 µM; activity change, negative = inhibition: at the top concentration", "values": [
      {"smiles": "COc1ccc(/C=N/NC(=O)c2nc(Cl)c(Cl)c(N)c2Cl)cc1COc1ccc(F)cc1F", "Potency": "inconclusive: 25.1 µM [inhibitor, partial curve]"},
      {"smiles": "Fc1ccc(CSc2nc3ccccc3[nH]2)c2ccccc12", "activity change, negative = inhibition": "inactive: -1.42%"},
      {"smiles": "CC1(C(=O)Nc2cccc3ccccc23)CC1(Br)Br", "note": "(stereo not drawn)", "Potency": "inconclusive: 35.5 µM [inhibitor, partial curve]"},
      {"smiles": "CC(=O)Nc1cc2c(cc1C(C)=O)OCCO2", "Potency": "inconclusive: 31.6 µM [inhibitor, single point]"},
      {"smiles": "Cn1nnc(C(O)CN2CCOCC2)n1", "note": "(stereo not drawn)", "Potency": "inconclusive: 39.8 µM [inhibitor, single point]"},
      {"smiles": "c1ccc2c(c1)nc(N1CCCCCC1)c1ccccc12", "Potency": "inconclusive: 31.6 µM [inhibitor, partial curve]"},
      {"smiles": "O=C(O)c1ccccc1NSc1ccccc1[N+](=O)[O-]", "Potency": "inconclusive: 28.2 µM [inhibitor, partial curve]"},
      {"smiles": "Cc1cnc(C(=O)OCC(=O)N2c3ccccc3CC2C)cn1", "note": "(stereo not drawn)", "activity change, negative = inhibition": "inactive: 2.77%"},
      {"smiles": "COc1cc(C[C@H]2C(=O)OC[C@@H]2Cc2ccc(OC)c(OC)c2)ccc1O", "activity change, negative = inhibition": "inactive: 3.93%"},
      {"smiles": "COC(=O)CCc1nc2ccccc2[nH]c1=O", "Potency": "inconclusive: 22.4 µM [inhibitor, partial curve]"},
      {"smiles": "Nc1c(N2CCCC2)cc(Cl)c2nonc12", "Potency": "inconclusive: 1.41 µM [inhibitor, full curve]"},
      {"smiles": "[NH-]c1ncnc2c1N=C[N+]2=CC=CCO", "Potency": "inconclusive: 25.1 µM [inhibitor, single point]"},
      {"smiles": "Cc1c(Cl)cccc1NS(=O)(=O)c1ccc2c(c1)C1C=CCC1C(c1ccc(C(=O)O)cc1)N2", "note": "(stereo not drawn)", "activity change, negative = inhibition": "inactive: -27.1%"},
      {"smiles": "CC1Oc2ccccc2C=C1/C=N/NC(=O)c1ccccc1", "note": "(stereo not drawn)", "Potency": "inconclusive: 35.5 µM [inhibitor, partial curve]"},
      {"smiles": "COc1ccc(-n2nnc3c(SCC(=O)Nc4ccc5c(c4)OCCO5)ncnc32)cc1", "Potency": "inconclusive: 39.8 µM [inhibitor, single point]"},
      {"smiles": "O=C(Nc1ccc(C#Cc2ccccc2)cc1)C1CC1", "Potency": "inconclusive: 39.8 µM [inhibitor, single point]"},
      {"smiles": "COc1ccc([C@H]2[C@H](C(=O)OC(C)(C)C)N3N=Cc4ccccc4C3C23C(=O)c2ccccc2C3=O)cc1OC", "note": "(stereo partly drawn)", "Potency": "inconclusive: 39.8 µM [inhibitor, single point]"},
      {"smiles": "O=c1oc2ccccc2cc1-c1csc(NN=C2CCCC2)n1", "Potency": "inconclusive: 31.6 µM [inhibitor, single point]"},
      {"smiles": "O=C(COc1ccc(Cl)cc1Cl)N(c1ccccn1)C1CCCCC1", "Potency": "inconclusive: 39.8 µM [inhibitor, single point]"},
      {"smiles": "O=S(=O)(Cc1cc(N2CCOCC2)nc(-c2ccccn2)n1)c1ccccc1", "Potency": "inconclusive: 31.6 µM [inhibitor, single point]"},
      {"smiles": "CCOc1cc(/C=C/C(=O)Nc2ccc(C(=O)NCCN(CC)CC)cc2)ccc1OCC(C)C", "Potency": "inconclusive: 28.2 µM [inhibitor, single point]"},
      {"smiles": "CC(C)[C@H](NS(=O)(=O)c1ccc2c(c1)OCCO2)C(=O)OCC(=O)Nc1cc(Cl)ccc1Cl", "activity change, negative = inhibition": "inactive: 0.98%"},
      {"smiles": "COc1ccc(-c2nnc(NC(=O)c3ccccc3C)o2)cc1", "Potency": "inconclusive: 25.1 µM [inhibitor, single point]"},
      {"smiles": "C/C(CCN1CCc2nc(-c3ccccc3)c(-c3ccccc3)cc2C1)=N\\OC[C@@H](C)[C@H](OCc1ccccc1)C(C)C", "Potency": "inconclusive: 31.6 µM [inhibitor, single point]"},
      {"smiles": "N#Cc1ccc(-c2cn(-c3ccccc3)c3[n+]2CCCS3)cc1", "Potency": "inconclusive: 25.1 µM [inhibitor, partial curve]"},
      {"smiles": "COc1ccc(NC(=O)c2oc3ccc(S(=O)(=O)N4CCOCC4)cc3c2C)cc1", "Potency": "inconclusive: 35.5 µM [inhibitor, single point]"},
      {"smiles": "CC(=O)Nc1c([N+](=O)[O-])cc2[nH]c(=O)[nH]c2c1[N+](=O)[O-]", "Potency": "active: 25.1 µM"},
      {"smiles": "COC(=O)C(c1cc(OC)c(O)c(OC)c1)(N1CCNC(C)C1)C(F)(F)F", "note": "(stereo not drawn)", "Potency": "inconclusive: 14.1 µM [inhibitor, partial curve]"},
      {"smiles": "Cc1noc2nc(-c3cccs3)cc(-c3nnc4n3CCCCC4)c12", "Potency": "inconclusive: 3.55 µM [inhibitor, full curve]"},
      {"smiles": "NS(=O)(=O)c1ccc(NC(=S)N2CCN(c3cccc(Cl)c3)CC2)cc1", "activity change, negative = inhibition": "inactive: -2.47%"},
      {"smiles": "Cc1ccc(CN2CCN(CC(=O)N=Nc3c(O)[nH]c4ccccc34)CC2)cc1", "activity change, negative = inhibition": "inactive: -2.64%"},
      {"smiles": "CCOC(=O)C1=C(C)N2C(=C(C#N)[C@@H]1c1ccc(C(=O)OC)cc1)SC[C@@]2(O)C(C)(C)C", "Potency": "active: 20 µM"},
      {"smiles": "NNC(=O)CC12CC3CC(C1)CC(n1ncnn1)(C3)C2", "activity change, negative = inhibition": "inactive: 12.6%"},
      {"smiles": "CCc1ccc(Cn2nnc(C(=O)Nc3ccc(OC)cc3OC)c2N)cc1", "Potency": "inconclusive: 31.6 µM [inhibitor, partial curve]"},
      {"smiles": "CCOc1ccc(-c2nnc(-c3snc(-c4ccc(F)cc4)c3N=CN(C)C)o2)cc1", "Potency": "inconclusive: 15.8 µM [inhibitor, partial curve, poor fit]"},
      {"smiles": "CCc1nnc(NS(=O)(=O)c2ccc(N/C=C/C(=O)c3ccc(C)cc3)cc2)s1", "Potency": "inconclusive: 39.8 µM [inhibitor, single point]"},
      {"smiles": "COC(=O)c1sc2ccccc2c1NC(=O)c1ccc(S(=O)(=O)N2CCCCC2)cc1", "Potency": "inconclusive: 39.8 µM [inhibitor, single point]"},
      {"smiles": "Cc1nnc(SCC(=O)Nc2nc(-c3ccccc3)cs2)n1N", "activity change, negative = inhibition": "inactive: 1.73%"},
      {"smiles": "O=C1NN(c2cccc(Br)c2)C(=O)/C1=C/c1ccc(-c2cc([N+](=O)[O-])ccc2O)o1", "activity change, negative = inhibition": "inactive: 5.33%"},
      {"smiles": "C/C(CC(=O)NCCN1CCOCC1)=N\\NC(=O)c1ccncc1", "Potency": "inconclusive: 39.8 µM [inhibitor, single point]"},
      {"smiles": "COc1ccc(NC(=O)CN2CCCCC2)cc1", "Potency": "inconclusive: 25.1 µM [inhibitor, single point]"},
      {"smiles": "Cc1cccc(N(Cc2cc3cc(C)ccc3[nH]c2=O)C(=O)c2cccs2)c1", "Potency": "inconclusive: 39.8 µM [inhibitor, single point]"},
      {"smiles": "Clc1nnc2ccc(-c3ccccc3)nn12", "Potency": "inconclusive: 25.1 µM [inhibitor, single point]"}
    ]}
  ]
}
